Source: patent publication US9073885B2, “Vitamin D3 lactone derivatives” (Teijin Pharma Limited, priority 2003, dated 2015)
At least one compound was matched to its structure with a doubt left. Some entries share one result that the patent states for a list of compounds.

Assays:
[1] = molecular target: T1, 1α,25-dihydroxyvitamine D3 receptor (VDR) (Gallus gallus, UniProt O42392); assay: Binding affinity to the 1α,25-dihydroxyvitamine D3 receptor (VDR) in chicken small intestinal mucosal cells; details: relative intensity ratio of the concentration inhibiting 50% of [26,27-methyl-3H]1α,25-dihydroxyvitamine D3 binding; 1α,25-dihydroxyvitamine D3 = 1
T1 construct: 0.2 mg of the 1α,25-dihydroxyvitamine D3 receptor protein in chicken small intestinal mucosal cells; from tissue; host or cells: chicken small intestinal mucosal cells
T1 sequence (O42392 1-451): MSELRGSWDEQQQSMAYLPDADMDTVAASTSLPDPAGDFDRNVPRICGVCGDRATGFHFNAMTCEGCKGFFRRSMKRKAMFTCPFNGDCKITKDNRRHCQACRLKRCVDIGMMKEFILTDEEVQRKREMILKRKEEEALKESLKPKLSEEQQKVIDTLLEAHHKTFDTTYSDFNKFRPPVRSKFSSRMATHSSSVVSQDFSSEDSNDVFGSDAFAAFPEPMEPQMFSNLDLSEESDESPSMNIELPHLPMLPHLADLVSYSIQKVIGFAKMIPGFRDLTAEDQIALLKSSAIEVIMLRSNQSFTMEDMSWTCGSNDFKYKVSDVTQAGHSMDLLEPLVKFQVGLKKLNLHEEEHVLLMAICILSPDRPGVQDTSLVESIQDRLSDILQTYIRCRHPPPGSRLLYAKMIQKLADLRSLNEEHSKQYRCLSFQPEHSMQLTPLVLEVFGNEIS

HL-60 cells = assay: Vitamin D3 antagonist action: inhibition of HL-60 cell differentiation induced by 1α,25-dihydroxyvitamine D3 (NBT reducing activity); assay type: cell-based; details: inhibition of NBT reducing activity induced by 1×10^-8 M 1α,25-dihydroxyvitamine D3, 4 days
From the text: The Vitamin D3 Antagonist Action Determined by Using the Induction of HL-60 Cell Differentiation by 1α,25-dihydroxyvitamine D3 as an Indicator
(1) HL-60 cells that were purchased from a cell bank (Japanese Cancer Research Resources Bank, Cell No. JCRB0085) were used. The cells were maintained as a frozen preservation stock to prevent changes in cellular characteristics by subculture. The stock was thawed before starting the experiment, and the cells which subsequently initiated subculture were used. The cells with subcultivation approximately over one month to a half year were used for the experiment. The subcultivation was performed by first centrifuging and collecting cells in suspension culture, and then diluting the collected cells by approximately a factor of 100 to a concentration of 1×10^4 to 2×10^4 cells/ml in a fresh culture medium. An RPMI-1640 medium with 10% fetal bovine serum was used as the culture medium.
(2) The cells that had been subcultured in (1) were collected by centrifugation and dispersed to a concentration of […] cells/ml in the culture medium, and the dispersed cells were subsequently seeded with 1 ml/well in a 24-well culture dish. To this system was added an ethanol solution, which was prepared with 1×10^−5 M of 1α,25-dihydroxyvitamine D3 and 1×10^−8 M to 10^−4 M of the compound of the present invention, at 1 μl per well (the final concentration: 1×10^−8 M of 1α,25-dihydroxyvitamine D3 and 1×10^−11 M to 10^−7 M of the compound of the present invention). As a control, ethanol was added at 1 μl per well. The cells were incubated under 5% CO2 at 37° C. for 4 days, and the culture medium was subjected to centrifugation to collect the cells.
(3) The induction of nitroblue tetrazolium (hereinafter referred to as NBT) reducing activity was used as an indicator of the induction of HL-60 cell differentiation. The NBT reducing activity was measured according to the procedures described below. That is, after the centrifuged and collected cells were suspended in a fresh culture medium, NBT and 12-O-tetradecanoylphorbol-13-acetate were added to the medium to make their concentrations 0.1% and 100 ng/ml, respectively, and then the medium was incubated at 37° C. for 25 minutes to create a Cytospin sample. After air drying the resultant sample, Kernechtrot staining was performed to determine the ratio of NBT reducing activity-positive cells under an optical microscope. A percent ratio of the positive cell ratio obtained by the concomitant treatment with 1×10^−8 M of 1α,25-dihydroxyvitamine D3 and 1×10^−11 M to 1×10^−7 M of the compound of the present invention to the positive cell ratio obtained by the treatment of 1×10^−8 M of 1α,25-dihydroxyvitamine D3 alone was plotted as a function of the treatment concentration of the compound of the present invention. The plotted results were used to calculate the treatment concentration of the compound of the present invention corresponding to the percent ratio of 50%, which was designated as the IC50 value (nM).
The Effect on the Induction of NBT Reducing Activity in HL-60 Cells (The Inhibitory Effect of the Compound of the Present Invention on the Cell Differentiation Induction by 1α,25-dihydroxyyitamine D3)

| Compound | VDR Affinity [1] | IC50 (HL-60 cells) |
| --- | --- | --- |
| C=C1C(=CC=C2CCCC3(C)C2CCC3C(C)CC2OC(=O)C(=C)C2CCC)CC(O)CC1O [Compound No. 103a, 20(R)-(tetrahydro-3-methylene-2-furanone-4-propyl-5-yl)methyl-9,10-secopregna-5(Z),7(E),10(19)-triene-1α,3β-diol] | 1/10-1/30 | 10 to 100 nM |
| C=C1C(=CC=C2CCCC3(C)C2CCC3C(C)CC2OC(=O)C(=C)C2CCC)CC(O)CC1O [Compound No. 103b, 20(R)-(tetrahydro-3-methylene-2-furanone-4-propyl-5-yl)methyl-9,10-secopregna-5(Z),7(E),10(19)-triene-1α,3β-diol] | 1/10-1/30 | 10 to 100 nM |
| C=C1C(=CC=C2CCCC3(C)C2CCC3C(C)CC2OC(=O)C(=C)C2CCC)CC(O)CC1O [Compound No. 103c, 20(R)-(tetrahydro-3-methylene-2-furanone-4-propyl-5-yl)methyl-9,10-secopregna-5(Z),7(E),10(19)-triene-1α,3β-diol] | 1/10-1/30 | < 10 nM |
| C=C1C(=CC=C2CCCC3(C)C2CCC3C(C)CC2OC(=O)C(=C)C2CCC)CC(O)CC1O [Compound No. 103d, 20(R)-(tetrahydro-3-methylene-2-furanone-4-propyl-5-yl)methyl-9,10-secopregna-5(Z),7(E),10(19)-triene-1α,3β-diol] | 1-1/5 | < 10 nM |
| C=C1C(=CC=C2CCCC3(C)C2CCC3C(C)CC2OC(=O)C(=C)C2c2ccccc2)CC(O)CC1O [Compound No. 109a, 20(R)-(tetrahydro-3-methylene-2-furanone-4(R)-phenyl-5(R)-yl)methyl-9,10-secopregna-5(Z),7(E),10(19)-triene-1α,3β-diol] | 1/5-1/10 | 10 to 100 nM |
| C=C1C(=CC=C2CCCC3(C)C2CCC3C(C)CC2OC(=O)C(=C)C2c2ccccc2)CC(O)CC1O [Compound No. 109b, 20(R)-(tetrahydro-3-methylene-2-furanone-4(S)-phenyl-5(S)-yl)methyl-9,10-secopregna-5(Z),7(E),10(19)-triene-1α,3β-diol] | 1-1/5 | 10 to 100 nM |
| C=C1C(=CC=C2CCCC3(C)C2CCC3C(C)CC2OC(=O)C(=C)C2c2ccccc2)CC(O)CC1O [Compound No. 109c, 20(R)-(tetrahydro-3-methylene-2-furanone-4(R)-phenyl-5(S)-yl)methyl-9,10-secopregna-5(Z),7(E),10(19)-triene-1α,3β-diol] | 1/5-1/10 | 10 to 100 nM |
| C=C1C(=CC=C2CCCC3(C)C2CCC3C(C)CC2OC(=O)C(=C)C2c2ccccc2)CC(O)CC1O [Compound No. 109d, 20(R)-(tetrahydro-3-methylene-2-furanone-4(S)-phenyl-5(R)-yl)methyl-9,10-secopregna-5(Z),7(E),10(19)-triene-1α,3β-diol] | 1/10-1/30 | 100 to 300 nM |
| C=C1C(=CC=C2CCCC3(C)C2CCC3C(C)CC2OC(=O)C(=C)C2CCc2ccccc2)CC(O)CC1O [Compound No. 110a, 20(R)-(tetrahydro-3-methylene-2-furanone-4-phenethyl-5-yl)methyl-9,10-secopregna-5 (Z),7(E),10(19)-triene-1α,3β-diol] | 1/10-1/30 | 10 to 100 nM |
| C=C1C(=CC=C2CCCC3(C)C2CCC3C(C)CC2OC(=O)C(=C)C2CCc2ccccc2)CC(O)CC1O [Compound No. 110b, 20(R)-(tetrahydro-3-methylene-2-furanone-4-phenethyl-5-yl)methyl-9,10-secopregna-5 (Z),7(E),10(19)-triene-1α,3β-diol] | 1/10-1/30 | 10 to 100 nM |
| C=C1C(=CC=C2CCCC3(C)C2CCC3C(C)CC2OC(=O)C(=C)C2CCc2ccccc2)CC(O)CC1O [Compound No. 110c, 20(R)-(tetrahydro-3-methylene-2-furanone-4-phenethyl-5-yl)methyl-9,10-secopregna-5 (Z),7(E),10(19)-triene-1α,3β-diol] | 1/10-1/30 | 10 to 100 nM |
| C=C1C(=CC=C2CCCC3(C)C2CCC3C(C)CC2OC(=O)C(=C)C2CCc2ccccc2)CC(O)CC1O [Compound No. 110d, 20(R)-(tetrahydro-3-methylene-2-furanone-4-phenethyl-5-yl)methyl-9,10-secopregna-5 (Z),7(E),10(19)-triene-1α,3β-diol] | 1-1/5 | < 10 nM |
| C=C1C(=CC=C2CCCC3(C)C2CCC3C(C)CC2OC(=O)C(=C)C2(C)C)CC(O)CC1O [Compound No. 111a, 20(R)-(tetrahydro-3-methylene-2-furanone-4,4-dimethyl-5(R)-yl)methyl-9,10-secopregna-5(Z),7(E),10(19)-triene-1α,3β-diol] | 1/5-1/10 | 10 to 100 nM |
| C=C1C(=CC=C2CCCC3(C)C2CCC3C(C)CC2OC(=O)C(=C)C2(C)C)CC(O)CC1O [Compound No. 111b, 20(R)-(tetrahydro-3-methylene-2-furanone-4,4-dimethyl-5(S)-yl)methyl-9,10-secopregna-5(Z),7(E),10(19)-triene-1α,3β-diol] | 1-1/5 | < 10 nM |
| C=C1C(=CC=C2CCCC3(C)C2CCC3C(C)CC2OC(=O)C(=C)C2CC)CC(O)C(C)C1O [Compound No. 202a, 2α-methyl-20(R)-(tetrahydro-3-methylene-2-furanone-4(R)-ethyl-5(R)-yl)methyl-9,10-secopregna-5(Z),7(E),10(19)-triene-1α,3β-diol] | 1/5-1/10 | < 10 nM |
| C=C1C(=CC=C2CCCC3(C)C2CCC3C(C)CC2OC(=O)C(=C)C2CC)CC(O)C(C)C1O [Compound No. 202b, 2α-methyl-20(R)-(tetrahydro-3-methylene-2-furanone-4(S)-ethyl-5(S)-yl)methyl-9,10-secopregna-5 (Z),7(E),10(19)-triene-1α,3β-diol] | 1-1/5 | < 10 nM |
| C=C1C(=CC=C2CCCC3(C)C2CCC3C(C)CC2OC(=O)C(=C)C2CC)CC(O)C(C)C1O [Compound No. 202c, 2α-methyl-20(R)-(tetrahydro-3-methylene-2-furanone-4(R)-ethyl-5(S)-yl)methyl-9,10-secopregna-5(Z),7(E),10(19)-triene-1α,3β-diol] | 1-1/5 | < 10 nM |
| C=C1C(=CC=C2CCCC3(C)C2CCC3C(C)CC2OC(=O)C(=C)C2CC)CC(O)C(C)C1O [Compound No. 202d, 2α-methyl-20(R)-(tetrahydro-3-methylene-2-furanone-4(S)-ethyl-5(R)-yl)methyl-9,10-secopregna-5(Z),7(E),10(19)-triene-1α,3β-diol] | 1/5-1/10 | 10 to 100 nM |
| C=C1C(=CC=C2CCCC3(C)C2CCC3C(C)CC2OC(=O)C(=C)C2CCCC)CC(O)C(C)C1O [Compound No. 205a, 2α-methyl-20(R)-(tetrahydro-3-methylene-2-furanone-4(R)-butyl-5(R)-yl)methyl-9,10-secopregna-5(Z),7(E),10(19)-triene-1α,3β-diol] | 1/5-1/10 | < 10 nM |
